Measured values from PubChem BioAssay AID686970 (National Center for Advancing Translational Sciences (NCATS), 2013).
The whole screen tested about 360,000 compounds, of which about 6,000 (1.7%) were called active. The inconclusive results got no clear call from the source; some entries with a clear call stand among them for comparison. Calls follow the shape of the dose curve; as a rule, active = well fitted cell-killing curve with a large enough effect; inconclusive = small, poorly fitted or top-dose-only effect, or effect the other way; inactive = flat fitted curve, though single readings scatter. No potency is given beside an inconclusive call; the fits are too rough.

Experiment: qHTS for induction of synthetic lethality in tumor cells producing 2HG: qHTS for the HT-1080-NT fibrosarcoma cell line;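 also: NT is the 2HG producing partner of a matched IDH1 knockdown line; nearly all actives have a fitted effect of over 55% in size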;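 as to activity, negative = less viability: 0% = DMSO-treated cells and -100% = media-only wells without cells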
Details: HT-1080-NT fibrosarcoma viability, CellTiter-Glo ATP luminescence, 48 h; activity, negative = less viability: at 46.1 µM (top of the series) unless noted
How it was run: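 Compounds were tested in concentration-response format on HT-1080-NT cells for 48 hours at 37 degrees C. Cell viability came from CellTiter-Glo luminescence; curves were classified by r2, response magnitude and activity.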
Potency is read from the fitted curve at half-maximal effect; tags tell the direction and shape of the fitted curve.

| Compound | Potency | activity, negative = less viability |
| --- | --- | --- |
| CCn1c2ccccc2c2nc3cc(OC)c(OC)cc3nc21 | inconclusive [cytotoxic, partial curve] |  |
| C=CCNc1nc(Nc2ccc(-c3nc4ccccc4o3)cc2)nc(N2CCOCC2)n1 | inconclusive [cytotoxic, single point] |  |
| O=C(COc1ccc(S(=O)(=O)N2CCCCC2)cc1)NCc1cccnc1 |  | inactive: -5.51% [at 9.24 µM] |
| O=C(Nc1ccccc1N1CCCC1)C1CCN(C(=O)c2ccc(F)cc2)CC1 |  | inactive: 1.6% |
| c1ccc2c(c1)oc1c(Nc3ccc4c(c3)OCCO4)ncnc12 | inconclusive [cytotoxic, single point] |  |
| CCCCCn1nc(C)c(/C=N\NC(=O)c2cc(C)oc2C)c1C | inconclusive [cytotoxic, single point] |  |
| FC(F)(F)c1cnc(-c2cnc(-c3cccnc3)nc2)c(Cl)c1 |  | inactive: 22% |
| COc1cc(NC(=O)CCN2CCN(c3ccccc3F)CC2)cc(OC)c1 |  | inactive: -28.1% |
| CSc1ccc(CN2CCC(C)(Oc3ccccc3)C2)cc1 (centres undefined) | inconclusive [cytotoxic, single point] |  |
| CCOc1ccc(NC(=O)CN(C)C(=O)c2cccc3ccccc23)cc1OCC |  | inactive: -1.92% |
| C(=C\c1ccccc1)/CN1CCN(C(c2ccnc3ccccc23)c2nnnn2-c2ccc3c(c2)OCCO3)CC1 (centres undefined) | inconclusive [cytotoxic, single point] |  |
| Fc1cccc(/C=N/Nc2nc3ccccc3[nH]2)c1 | inconclusive [cytotoxic, partial curve] |  |
| O=C(Nc1ccc(Cl)cc1)NC1CCCCC1Cc1ccco1 (centres undefined) | inconclusive [cytotoxic, single point] |  |
| Cc1cc(C)cc(NC(=O)Cn2c(=O)oc3cc(S(=O)(=O)N4CCC(C)CC4)ccc32)c1 | inconclusive [cytotoxic, single point] |  |
| O=C(Cc1cccs1)Nc1ccc(-c2nc3ccccc3[nH]2)cc1 | inconclusive [cytotoxic, single point] |  |
| O=[N+]([O-])c1ccc(NS(=O)(=O)c2ccc(Cl)c(Cl)c2)cc1 | active: 16.4 µM |  |
| CN(C)CCCCCN(C)Cc1cc2ccccc2o1 | inconclusive [cytotoxic, partial curve] |  |
| Cc1cccc(C)c1NC(=O)C(c1ccccc1OC(F)(F)F)N1CCN(C/C=C/c2ccccc2)CC1 (centres undefined) | inconclusive [cytotoxic, single point] |  |
| N=c1sccn1CC(=O)Nc1ccc(SC(F)F)cc1 |  | inactive: -2.46% |
| Cc1ccccc1CNCCCSc1ncccn1 |  | inactive: 1.46% |
| CC(=O)n1cc(/C=N/NC(=O)c2cccc(O)c2)c2ccccc21 |  | inactive: 11.8% |
| COC(=O)c1cccc(N2C(=O)C[C@](Sc3ccc(C)cc3)(C(=O)OC)[C@H]2c2ccccc2)c1 | inconclusive [cytotoxic, single point] |  |
| COc1ccc(NC(=O)c2cc(-c3cc(Cl)ccc3OC)n[nH]2)c(C)c1 |  | inconclusive: -36.7% [cytotoxic] |

| Compound | Potency | activity, negative = less viability |
| --- | --- | --- |
| O=C(N/N=C/c1c(Cl)cccc1Cl)c1cccc(F)c1 |  | inactive: 11.9% |
| Cc1ccc2nc(N(CCCN(C)C)C(=O)c3ccc4ncsc4c3)sc2c1 | inconclusive [cytotoxic, single point] |  |
| COc1ccc(-n2cc(CN(C)C3CCOCC3)c(-c3cccc(F)c3)n2)cc1 | inconclusive [cytotoxic, partial curve] |  |
| O=C(O)c1ccc(N/N=C/c2cn(Cc3ccccc3F)c3ccccc23)cc1 | inconclusive [cytotoxic, partial curve] |  |
| COc1ccccc1NC1=C(Cl)C(=O)OC1OC(=O)c1ccco1 (centres undefined) | active: 20.6 µM |  |
| CC(=O)[C@@H]1[C@@H](C(=O)c2ccc(F)cc2)[C@]2(C(=O)Nc3ccccc32)[C@H]2C=Cc3cc(F)ccc3N12 | inconclusive [cytotoxic, single point] |  |
| CCOC(=O)N1CCC(NS(=O)(=O)c2ccc(NC(C)=O)c(Cl)c2)CC1 |  | inactive: -5.91% |
| CC(=O)N1CCN(c2ccccc2NC(=O)COc2cc(C)cc(C)c2)CC1 |  | inactive: -3.02% |
| CCCC#Cc1ccc2c(c1)O[C@H](CN(C)S(=O)(=O)c1cccc(OC)c1)[C@H](C)CN([C@H](C)CO)S2(=O)=O | inconclusive [cytotoxic, single point] |  |
| O=C(COc1ccc(C(=O)c2ccc(F)cc2)cc1)NCc1ccc(F)cc1 | inconclusive [cytotoxic, partial curve] |  |
| Cc1cccc(-n2c(O)c(C=NC3CCS(=O)(=O)C3)c3ccccc3c2=O)c1C (centres undefined) |  | inactive: -16.4% |
| CCOc1cc(Br)c(C=O)cc1OCC | active: 25.9 µM |  |
| COC(=O)c1ccc2c(=O)[nH]c(CSc3nc(-c4ccc(F)cc4)cs3)nc2c1 |  | inactive: 21.3% |
| Cc1cc(NC(=S)Nc2ccccc2)ccc1Br | inconclusive [cytotoxic, single point] |  |
| COc1ccccc1N(C)S(=O)(=O)c1ccc(C(=O)OCC(=O)N2CCC2)cc1 | inconclusive [cytotoxic, single point] |  |
| COc1ccc(CC(C)N2CCN(c3ccccc3OC)CC2)cc1OC (centres undefined) |  | inconclusive: -37.6% [cytotoxic] |
| COc1ccc(C(=O)C(CN2CCOCC2)c2ccccc2)cc1F (centres undefined) |  | inconclusive: -30.7% [cytotoxic] |
| CN(C(=O)c1cccc(C#CC(C)(C)O)c1)C1CCCN(Cc2ccccc2F)C1 (centres undefined) |  | inactive: -0.144% |
| O=C1c2ccccc2NC(c2c(Cl)cccc2Cl)N1Cc1ccccc1 (centres undefined) |  | inactive: -27.2% |
| CC(NC(=O)Nc1cccc(Cl)c1)C(c1cccs1)N1CCCC1 (centres undefined) |  | inactive: -5.08% |
| CCNC(=O)C1(C)CCCN(C(=O)c2ccc(F)c(C)c2)C1 (centres undefined) | inconclusive [rising, partial curve] |  |
| CCOC(=O)N=Nc1c(O)n(Cc2ccccc2)c2ccccc12 |  | inactive: 6.77% |
| COc1ccccc1/C=C/C=N/NC(=O)c1cc(-c2ccc(C)o2)[nH]n1 | inconclusive [cytotoxic, single point] |  |

| Compound | Potency | activity, negative = less viability |
| --- | --- | --- |
| CCCSCCCNC(=O)CN1C(=O)COc2ccc(S(=O)(=O)N3CCCC3)cc21 |  | inconclusive: -2.05% [cytotoxic] |
| Cc1cc(C(=O)OCC(=O)N2CCOCC2)ccc1[N+](=O)[O-] |  | inactive: 20.8% |
| N/C(=N\N=C/c1ccc(Br)cc1)N/N=C\c1ccc(Br)cc1 | inconclusive [cytotoxic, partial curve] |  |
| CC(=O)Nc1cc(-c2cccc(C(=O)NCCN(C)C)c2)cn2c(-c3ccccc3)cnc12 | inconclusive [cytotoxic, partial curve] |  |
| Cc1nnc(SCC(=O)N/N=C/c2cn(-c3ccccc3)nc2-c2ccccc2)n1-c1ccccc1 | inconclusive [cytotoxic, single point] |  |
| CCCN=Cc1c(CCC)[nH]n(-c2nc3ccccc3s2)c1=O | inconclusive [cytotoxic, single point] |  |
| COc1cccc(CC2(CO)CCCN(CC3=Cc4cc(Cl)ccc4OC3)C2)c1 (centres undefined) |  | inactive: -6.82% |
| COc1ccccc1N(CC(=O)N/N=C/c1ccc(OCC(=O)NCc2ccco2)cc1)S(=O)(=O)c1ccc(C)cc1 | inconclusive [cytotoxic, single point] |  |
| COc1ccc(CN2C(=O)C(CC(C)C)Nc3ncnc(N4CCN(c5ccccc5)CC4)c32)cc1 (centres undefined) | inconclusive [cytotoxic, single point] |  |
| Cc1cccnc1C(NC(=O)C1CCN(CCOc2ccc(F)cc2)CC1)c1ccc(F)cc1 (centres undefined) | inconclusive [cytotoxic, single point] |  |
| CCOC(=O)c1oc2ccc(Br)cc2c1NC(=O)CN1CCN(C)CC1 | inconclusive [cytotoxic, single point] |  |
| Cc1ccc(CN2CCC(c3cc(-c4cccs4)n[nH]3)CC2)cc1 | inconclusive [cytotoxic, single point] |  |
| CC(=O)c1cc(NC(=O)c2cccc(C(F)(F)F)c2)c(=O)oc1C | inconclusive [cytotoxic, partial curve, poor fit] |  |
| O=c1c2c3c(sc2ncn1/N=C/c1ccc([N+](=O)[O-])o1)CCCC3 | inconclusive [cytotoxic, partial curve, poor fit] |  |
| CC(C)S(=O)(=O)c1csc(C(=O)Nc2ccc(F)cc2)c1N | inconclusive [cytotoxic, partial curve, poor fit] |  |
| CCOC(=O)C1(C)CCN1C(=O)c1ccc(C#N)cc1 (centres undefined) | inconclusive [rising, single point] |  |
| Cc1noc(-c2ccccc2)c1NC(=O)Nc1ccc(Cl)cc1 | inconclusive [cytotoxic, single point] |  |
| O=C1NC[C@H](CCCCN2CCN(CCc3ccc(O)cc3)C(=O)C2=O)N(CCC2CCCCC2)C1=O |  | inactive: 16.8% |
| CC1(C(=O)NCc2cccc(C(F)(F)F)c2)CCN1C1Cc2ccccc2C1 (centres undefined) | inconclusive [cytotoxic, single point] |  |
| Cc1c(C)n(C)c2ccc(C(=O)NCCCN(C)C3CCCCC3)cc12 | inconclusive [cytotoxic, partial curve, poor fit] |  |
| O=C(NCCN1CCCC1=O)C1CCC(=O)N(CCc2cccc(F)c2)C1 (centres undefined) |  | inactive: 7.64% |
| O=C(Nc1ccc2c(c1)CCC2)c1cc(S(=O)(=O)Nc2ccc(F)cc2)c(Cl)cc1Cl | inconclusive [cytotoxic, single point] |  |
| CCNC(=O)C1CCCN(C(=O)c2cc(F)cc(F)c2)CC1 (centres undefined) | inconclusive [rising, single point] |  |
